Test results from US20230278972A1, “SUBSTITUTED HALOALKYL SULFONANILIDE HERBICIDES” (FMC Corporation, priority 2020, published 2023).

Experiments:
Conditions in all cases: Flood, 250 g ai/ha; visual rating after 13 to 15 days; scale of 0 to 100 where 0 is no effect and 100 is complete control
[1] = tested on: rice (Oryza sativa); assay: Test B flooded paddy test, rice
[2] = tested on: ducksalad (Heteranthera limosa); assay: Test B flooded paddy test, ducksalad
[3] = tested on: barnyardgrass (Echinochloa crus-galli); assay: Test B flooded paddy test, barnyardgrass
[4] = tested on: sedge, umbrella (small-flower umbrella sedge, Cyperus difformis); assay: Test B flooded paddy test, sedge, umbrella

SMILES | Plant response rating, Rice [1] | Plant response rating, Ducksalad [2] | Plant response rating, Barnyardgrass [3] | Plant response rating, Sedge, Umbrella [4]
Cc1cc(C)c(N(S(=O)(=O)C(F)(F)F)S(=O)(=O)C(F)(F)F)cc1-c1cc(Cl)nn(C)c1=O [Compound 74] | 0 | 0 | 0 | 0
Cc1cc(-c2cc(N(S(=O)(=O)C(F)(F)F)S(=O)(=O)C(F)(F)F)c(C)cc2C)c(=O)n(C)n1 [Compound 75] | 0 | 0 | 0 | 0
Cc1cc(C)c(N(S(=O)(=O)C(F)(F)F)S(=O)(=O)C(F)(F)F)cc1-c1ccnn(C)c1=O [Compound 76] | 45 | 10 | 35 | 45
Cc1cc(C)c(-c2ccnn(CC(C)C)c2=O)cc1NS(=O)(=O)C(F)(F)F [Compound 77] | 15 | 40 | 10 | 85
Cc1cc(C)c(-c2ccnn(C(C)C)c2=O)cc1NS(=O)(=O)C(F)(F)F [Compound 78] | 0 | 20 | 0 | 95
CCn1nccc(-c2cc(NS(=O)(=O)C(F)(F)F)c(C)cc2C)c1=O [Compound 79] | 20 | 0 | 0 | 85
Cc1cc(C)c(-c2ccnn(C)c2=O)cc1NS(=O)(=O)C(F)(F)F [Compound 80] | 55 | 40 | 70 | 95
COc1cc(C)c(NS(=O)(=O)C(F)(F)F)cc1-c1ccnn(C)c1=O [Compound 81] | 0 | 0 | 0 | 0
Cc1cc(C)c(-n2nccc(Cl)c2=O)cc1NS(=O)(=O)C(F)(F)F [Compound 82] | 0 | 75 | 0 | 85
Cc1cc(C)c(-n2ncccc2=O)cc1NS(=O)(=O)C(F)(F)F [Compound 83] | 0 | 0 | 0 | 0
Cc1cc(C)c(-n2nccc(C)c2=O)cc1NS(=O)(=O)C(F)(F)F [Compound 84] | 0 | 0 | 0 | 0
Cc1ccc(=O)n(-c2cc(NS(=O)(=O)C(F)(F)F)c(C)cc2C)n1 [Compound 85] | 0 | 0 | 0 | 0
COC1CCCN(C(=O)c2cc(N(C(=O)C(C)C)S(=O)(=O)C(F)(F)F)c(C)cc2C)C1 (centres unmarked) [Compound 91] | 0 | 55 | 0 | 55
COC1CCCN(C(=O)c2cc(N(C(C)=O)S(=O)(=O)C(F)(F)F)c(C)cc2C)C1 (centres unmarked) [Compound 93] | 0 | 50 | 25 | 70
CO[C@@H]1CCCN(C(=O)c2cc(NS(=O)(=O)C(F)(F)F)c(C)cc2C)C1 [Compound 94] | 20 | 40 | 35 | 45
CO[C@@H]1CCCN(C(=O)c2cc(N(S(=O)(=O)C(F)(F)F)S(=O)(=O)C(F)(F)F)c(C)cc2C)C1 [Compound 95] | 0 | 35 | 0 | 40

SMILES | Plant response rating, Rice [1] | Plant response rating, Ducksalad [2] | Plant response rating, Barnyardgrass [3] | Plant response rating, Sedge, Umbrella [4]
COC1CCCN(C(=O)c2cc(N(COC(C)=O)S(=O)(=O)C(F)(F)F)c(C)cc2C)C1 (centres unmarked) [Compound 96] | 0 | 60 | 45 | 65
COC1CCCN(C(=O)c2cc(NS(=O)(=O)C(F)(F)F)c(C)c(F)c2C)C1 (centres unmarked) [Compound 98] | 0 | 75 | 10 | 90
Cc1cc(C)c(N(S(=O)(=O)C(F)(F)F)S(=O)(=O)C(F)(F)F)cc1C1=NOC2CCCC12 (centres unmarked) [Compound 99] | 15 | 80 | 65 | 95
COC1(OC)CCN(C(=O)c2cc(NS(=O)(=O)C(F)(F)F)c(C)cc2C)CC1 [Compound 101] | 35 | 65 | 35 | 90
COCC1(COC)CC(c2cc(NS(=O)(=O)C(F)(F)F)c(C)cc2C)=NO1 [Compound 104] | 0 | 35 | 0 | 75
Cc1cc(C)c(C(=O)N(C)CC2CC2)cc1NS(=O)(=O)C(F)(F)F [Compound 107] | 0 | 30 | 0 | 85
Cc1cc(C)c(C2=NOC(C(C)(C)C)C2)cc1NS(=O)(=O)C(F)(F)F (centres unmarked) [Compound 108] | 20 | 65 | 35 | 75
Cc1c(NS(=O)(=O)C(F)(F)F)cc(C(=O)N2CCC(F)CC2)c(C)c1F [Compound 109] | 10 | 80 | 0 | 90
COC1CCN(C(=O)c2cc(NS(=O)(=O)C(F)(F)F)c(C)c(F)c2C)CC1 [Compound 110] | 25 | 75 | 30 | 90
COC1CN(C(=O)c2cc(NS(=O)(=O)C(F)(F)F)c(C)cc2C)C1 [Compound 111] | 30 | 65 | 60 | 80
Cc1cc(C)c(C(=O)N2COC(C)(C)C2)cc1NS(=O)(=O)C(F)(F)F [Compound 112] | 60 | 50 | 35 | 65
COC1CCN(C(=O)c2cc(NS(=O)(=O)C(F)(F)F)c(C)cc2C)C1 (centres unmarked) [Compound 113] | 15 | 55 | 0 | 65
Cc1cc(C)c(N(S(=O)(=O)C(F)(F)F)S(=O)(=O)C(F)(F)F)cc1C1=NOC2(CCSCC2)C1 [Compound 114] | 0 | 0 | 0 | 0
COC(=O)N(c1cc(C(=O)N2CCCC(OC)C2)c(C)cc1C)S(=O)(=O)C(F)(F)F (centres unmarked) [Compound 115] | 25 | 65 | 30 | 70
Cc1c(NS(=O)(=O)C(F)(F)F)cc(C(=O)N2CC(C)OC(C)C2)c(C)c1F (centres unmarked) [Compound 116] | 0 | 90 | 0 | 95
Cc1cc(C)c(N(S(=O)(=O)C(F)(F)F)S(=O)(=O)C(F)(F)F)cc1C(=O)N1CCCC(F)C1 (centres unmarked) [Compound 118] | 0 | 50 | 35 | 55
